# Source: PubChem BioAssay AID1240 (Sanford-Burnham Center for Chemical Genomics, 2008)
# The whole screen tested about 50,000 compounds, of which about 800 (1.6%) showed an effect of 50% or more. Some of the results follow.
# Target: Bcl-2-like protein 10 (Homo sapiens) (UniProt Q9HD36)
# Assay: Phenotype converters, Bcl-B/TR3 peptide binding displacement, primary biochemical FP (AID 1240);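 further: 0% = Bcl-B with tracer peptide and DMSO and 100% = tracer peptide lacking Bcl-B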
# Details: GST-Bcl-B / FITC-TR3 peptide fluorescence polarization; stronger effect = higher value; compound at 3.75 mg/L
# Sequence of UniProt Q9HD36 (Q9HD36 whole entry, looked up): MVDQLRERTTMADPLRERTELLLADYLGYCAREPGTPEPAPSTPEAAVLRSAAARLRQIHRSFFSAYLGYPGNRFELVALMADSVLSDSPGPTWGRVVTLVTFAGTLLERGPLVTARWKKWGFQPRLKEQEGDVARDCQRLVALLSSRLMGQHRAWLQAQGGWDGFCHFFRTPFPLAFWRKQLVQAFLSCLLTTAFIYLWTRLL
row,SMILES,displacement [%]
1,C=CC[n+]1c(-c2ccc(OC)cc2)csc1Nc1cccc(C)c1C,3.3
2,CCOC(=O)c1ccc(NC(=O)c2ccc(S(=O)(=O)N(C)C)cc2)cc1,15.1
3,CC1=CC(C)C2COC(c3ccc[n+](C)c3)C1C2C (centres undefined),4.4
4,CCOC(=O)c1c(NC(=O)/C=C\C(=O)O)sc(C(=O)Nc2ccccc2)c1C,12.2
5,Cc1ccc(/C=N/N2CCN(Cc3ccccc3Cl)CC2)s1,11.2
6,Cc1ccc(C2Nc3ccccc3NC3=C2C(=O)CC(c2ccccc2)C3)cc1 (centres undefined),18.6
7,O=C1CSC(c2ccc(F)cc2)N1Cc1ccccc1 (centres undefined),-6.5
8,CS(=O)(=O)N(CC(=O)Nc1ccccc1Br)c1ccc(Cl)cc1,-8.3
9,COc1ccccc1CC(=O)Nc1ccc(Br)c(C)c1,11.6
10,CCOc1ccc(-c2nc(Cc3ccc(OC)cc3)no2)cc1,-3.4
11,COc1ccc(NC(=O)/C(=C\c2ccc(Br)cc2)NC(=O)c2ccccc2F)cc1,-10.9
12,c1ccc(NC2=Nc3cccc4cccc2c34)cc1,8.9
13,CCOc1cc(C(=O)Nc2ccncc2)cc(OCC)c1OCC,-0.2
14,N#Cc1c(Nc2ccccc2)ccnc1N1CCN(c2ccccc2)CC1,-9.8
15,O=C(NCCc1cccc(C(F)(F)F)c1)C(=O)Nc1ccccc1,-5
16,COC(=O)C1=C(O)/C(=C/c2ccc(O)cc2)N=C1C,11.7
17,CC(=O)C(C(C)=O)C1=C(Cl)C(=O)C(=O)c2ccccc21,2.1
18,COC(=O)C1=CNC=C(C(=O)OC)C1c1cc2c(cc1Cl)OCO2,4.7
19,CC1(C)CC(O)CC(C)(CN=Cc2c(O)n(-c3ccc(Cl)cc3)c(=O)[nH]c2=O)C1 (centres undefined),-31.5
20,C=CCN1C(=O)/C(=C\c2cc(Cl)ccc2OCc2ccccc2F)SC1=S,60.2
21,O=C(NNc1cccc(F)c1)C(O)(c1ccccc1)c1ccccc1,2
22,CCC(=O)N1c2ccccc2NC2=C(C(=O)CC(c3ccccc3)C2)C1c1ccc([N+](=O)[O-])cc1 (centres undefined),-7.4

row,SMILES,displacement [%]
1,O=C(O)CC/C(=N/NC(=O)c1c[nH]c2ccccc12)c1ccccc1,3.1
2,CC(/C=C1\SC(=S)N(c2ccc(F)cc2)C1=O)=C\c1ccccc1,-11.7
3,CC1=C(C#N)c2nc(N)c(C#N)c(C)c2/C1=C\c1ccc(Br)o1,2.7
4,CCN(CC)C(=O)c1sc(NC(=O)c2ccc(C)c(C)c2)c(C(=O)OC)c1C,-1.5
5,CCc1c(C)sc(NC(=O)C(C)Oc2cccc(Cl)c2)c1C(N)=O (centres undefined),8.5
6,CC(=O)Nc1nonc1OCCOc1nonc1NC(C)=O,11.4
7,O=c1oc(/C=C/c2ccc([N+](=O)[O-])cc2)nc2ccc(Cl)cc12,-15.5
8,CCN1C(=O)/C(=C\c2ccc(OCCOc3cccc(OC)c3)c(OC)c2)SC1=S,16.2
9,CC(C)c1ccc(/C=C/C(=O)NC(=S)Nc2ccc(S(=O)(=O)N=C(N)N)cc2)cc1,8.3
10,COC(=O)C12CC3CC(C1)CC(c1ccc([N+](=O)[O-])cc1)(C3)C2,11.1
11,COc1cccc(Nc2cc(=O)n(-c3ccccc3)c3ccccc23)c1,-7.3
12,COc1ccc(C2(CC(=O)Nc3ccccc3C)C(=O)c3ccccc3C2=O)cc1,-1.7
13,Cc1nc2ccccc2c(=O)n1/N=C/c1ccco1,-6.3
14,CCOc1ccc(/C=N/N2CCN(Cc3cccc4ccccc34)CC2)cc1OC,-8
15,CS(=O)(=O)N(Cc1ccc(C(=O)NCCSCc2ccccc2Cl)cc1)c1ccccc1,0.1
16,CCOC(=O)c1c(NC(=O)c2ccccc2)sc(C)c1CC,-8.6
17,CCOc1ccc(/C=C2/SC(=S)N(c3ccccc3OC)C2=O)cc1,-1.6
18,COc1ccc(CN2CCN(C3CCC(c4ccccc4)CC3)CC2)c(OC)c1 (centres undefined),-1.6
19,COc1ccc(C(=O)N2CCN(c3ccccc3)CC2)c(OC)c1,5.2
20,CC1CC(Nc2ccccc2)c2ccccc2N1C(=O)c1ccc(Cl)c(Cl)c1 (centres undefined),9.2
21,Cc1ccsc1C1Nc2ccc3ccccc3c2C2=C1C(=O)CC(C)(C)C2 (centres undefined),-0.1
22,CC1=C(C#N)c2nc(N)c(C#N)c(C)c2/C1=C\c1ccc(-c2ccc([N+](=O)[O-])cc2Cl)o1,-14.7

row,SMILES,displacement [%]
1,CC(=O)c1cccc(N2C(=O)C3C4c5ccccc5C(C(C)=O)(c5ccccc54)C3C2=O)c1 (centres undefined),10.3
2,O=C(COc1ccc(Cl)cc1Br)NCc1ccc2c(c1)OCO2,11.6
3,COc1cc(OC)c(OC)cc1/C=C1/C(=O)NC(=O)N(c2ccccc2)C1=O,1.4
4,CN1C(=O)/C(=C\c2ccccc2OCCOc2ccc(Br)cc2)SC1=S,2.3
5,Cc1cc(=O)[nH]c(SCC(=O)Nc2cccc(C)c2C)n1,-9.1
6,CCN1C(=O)/C(=C\c2ccc(N(C)C)cc2)C(C(=O)OC)=C1C,-2.3
7,O=C(O)C1C2C=CC3(CN(CC(O)COc4ccccc4)C(=O)C13)O2 (centres undefined),-2.7
8,CC(C)(C)c1cc(C(C)(C)C)c2nc(-c3ccccc3O)oc2c1O,1.1
9,CCCC(=O)Nc1cccc(NC(=O)c2cc([N+](=O)[O-])ccc2Br)c1,-0.4
10,CC1(C)CCC[C@@]2(C)C1CC[C@]1(C)OC(=O)C[C@H]21 (some centres undefined),-0.1
11,O=C(CSc1nncn1-c1ccccc1)c1ccc(F)cc1,13.4
12,CCOc1ccc([C@H]2[C@H](C(=O)c3ccccc3)N3c4ccccc4C=CC3C2(C#N)C#N)cc1 (some centres undefined),15.3
13,S=c1[nH]nc(-c2ccco2)n1C1CCCCC1,7.6
14,N#Cc1c(/N=C/N2CCCCC2)sc2c1CCCC2,3.2
15,Cc1ccc(-c2csc(N/N=C/c3cc(Br)ccc3O)n2)cc1,-4.5
16,CCc1ccc(N2C(=O)/C(=C/c3ccc(O)c(OC)c3)C(=O)NC2=S)cc1,11.9
17,CCOc1c(/C=C(\C#N)C(N)=O)c2ccccc2n1-c1c(Cl)cccc1Cl,-9.2
18,CCOC(=O)C1=C(O)CSC1=Nc1ccc(Cl)cc1Cl,-8.1
19,CS(=O)(=O)N(CC(=O)Nc1cccnc1)c1ccc(Oc2ccccc2)cc1,-3.6
20,NC(=O)c1cccc(N=Cc2cc(Cl)cc(Cl)c2O)c1,145
21,CCN(CC)CCCNC(=O)c1ccc(Cl)cc1,11
22,COc1ccccc1C=NN1CCN(Cc2ccc(C)cc2C)CC1,13.6

row,SMILES,displacement [%]
1,CCc1c(C)nc2[nH]nc(-c3ccccc3)n2c1=O,8.6
2,Cc1ccc(NS(=O)(=O)c2cc(Cl)ccc2Cl)c([N+](=O)[O-])c1,-12.3
3,CCOc1cc(/C=N/NC(=O)c2cccs2)ccc1OC(=O)c1ccc(C)cc1,-5.1
4,COc1ccc(NC(C)c2ccccc2)cc1 (centres undefined),10
5,CCOc1cc(/C=N/NC(=O)c2ccccn2)ccc1OC(=O)c1cccs1,2.3
6,COc1ccc(C(NC(=O)CC(C)C)NC(=O)CC(C)C)cc1,-7.2
7,O=C(Cc1ccccc1)N/N=C/C=C/c1ccccc1Cl,-4.7
8,NC(=O)CCN1C(=O)/C(=C\c2ccc(F)cc2)SC1=S,1.4
9,O=C(Nc1ccccc1)Nc1nnc(-c2ccc(F)cc2)s1,-7
10,COC(=O)c1ccc(/C=C2/Sc3ccccc3C2=O)cc1,18.2
11,COc1nc(NS(=O)(=O)c2ccc(N)cc2)nc(N(C)C)n1,-1.3
12,CCOC(=O)C1CCN(C(=O)CC(c2ccccc2)c2ccccc2)CC1,11.4
13,Cc1cc(-c2ccccc2)c2nncn2n1,8.3
14,COc1ccc(N2C(=O)C3C4CC(=O)C(c5ccccc54)C3C2=O)cc1 (centres undefined),1.6
15,CC(=O)c1cccc(NC(=O)c2ccc(-c3ccc(Cl)cc3Cl)o2)c1,-4.6
16,CC(NC(=O)CSc1ncc(-c2ccccc2)[nH]1)c1ccccc1 (centres undefined),-9.6
17,COc1ccc(S(=O)(=O)Nn2cnnc2)cc1,-1
18,CC(C)OC(=O)C(C(=O)C(F)(F)F)c1cc(NS(=O)(=O)c2ccc(Cl)cc2)ccc1O (centres undefined),7.9
19,O=C(CNc1cccc(Cl)c1)c1ccc(Br)cc1,11.2
20,N#C/C(=C\c1ccc(-c2ccc(Cl)c(Cl)c2)o1)c1ccccc1,135
21,COc1ccc2c(c1)-c1c(ssc1=S)C(C)(C)N2C(=O)CSc1nc(C)cc(C)n1,12.1
22,CCC(C)c1ccc(OCCOc2ccc(/C=C3/SC(=S)N(C)C3=O)cc2)cc1 (centres undefined),3

row,SMILES,displacement [%]
1,O=C(NCc1cccs1)C(=O)Nc1ccccc1,-1.2
2,COc1ccc(/C=c2\sc3nnc(-c4ccc(C)cc4)n3c2=O)c(OC)c1,73.8
3,CC(=O)Nc1ccc(NC(=O)c2ccc(Cl)c(Cl)c2)cc1,1.7
4,O=C(NNc1nc(Nc2ccccc2)nc(N2CCOCC2)n1)Nc1ccc(Cl)cc1,12.2
5,COc1ccc(N(CC(=O)Nc2cc(C)ccc2C)S(C)(=O)=O)cc1Cl,9.1
6,O=C(Nc1ccc2nn(-c3ccccc3)nc2c1)c1ccc([N+](=O)[O-])cc1,4.5
7,CCC/C(O)=C1\C(=O)CC(C)(C)CC1=Nc1ccccc1,3.7
8,CN(C)CCCN1C(=O)CSC1c1cccc(Cl)c1 (centres undefined),-5.4
9,CCOC(=O)c1ccccc1NC(=O)Cc1ccccc1[N+](=O)[O-],-0.2
10,Fc1ccc(-c2ccc(C(=S)N3CCN(c4ccccc4)CC3)o2)cc1,4.1
11,CCc1ccc(OCC(=O)Nc2ccc(F)cc2)cc1,15.9
12,N#C/C(=C\c1ccc(-c2cccc(C(F)(F)F)c2)o1)C(N)=O,-2.5
13,Cc1ccc(-c2nc3ncccc3o2)cc1NC(=O)c1ccco1,11.6
14,COCCCN1C(=O)/C(=C\c2ccc(SC)cc2)C(C(=O)OC)=C1C,1.8
15,CC(C)CCSc1nc2sc3c(c2c(=O)n1Cc1ccccc1)CCC3,7.8
16,Cc1ccc(NC(=O)C(=O)NCc2ccccc2Cl)cc1,0.2
17,CC1=C(C)CC2C(=O)N(c3ccccc3[N+](=O)[O-])C(=O)C2C1 (centres undefined),-10.1
18,O=c1oc2cc([N+](=O)[O-])ccc2nc1/C=C(\O)c1ccc(Br)cc1,18.6
19,Cc1cc(C)n(-c2cc(N3CCOCC3)nc(C)n2)n1,-1.2
20,O=C(CSc1nc2ccccc2n1Cc1ccccc1)N/N=C/c1ccco1,6.1
21,COc1cc(NC(=O)c2ccccc2C)c(Cl)cc1NC(=O)c1ccccc1,7
